Experimental data from the supplement of paper PMC3334620.
In all, about 33,000 sequences were measured (“E-score (-0.5 to 0.5)”: median about -0.012, highest 2% from about 0.27 on). This is one part of the list.

molecular target: T1, Vhr1 (UniProt P40522); experiment: PBM E-score (8-mer binding enrichment) (E-score (-0.5 to 0.5)); higher = stronger / more preferred TF binding; most listed sequences are background and not binding sites; conditions: protein concentration: 200 nM; construct: GST-full length
T1 sequence: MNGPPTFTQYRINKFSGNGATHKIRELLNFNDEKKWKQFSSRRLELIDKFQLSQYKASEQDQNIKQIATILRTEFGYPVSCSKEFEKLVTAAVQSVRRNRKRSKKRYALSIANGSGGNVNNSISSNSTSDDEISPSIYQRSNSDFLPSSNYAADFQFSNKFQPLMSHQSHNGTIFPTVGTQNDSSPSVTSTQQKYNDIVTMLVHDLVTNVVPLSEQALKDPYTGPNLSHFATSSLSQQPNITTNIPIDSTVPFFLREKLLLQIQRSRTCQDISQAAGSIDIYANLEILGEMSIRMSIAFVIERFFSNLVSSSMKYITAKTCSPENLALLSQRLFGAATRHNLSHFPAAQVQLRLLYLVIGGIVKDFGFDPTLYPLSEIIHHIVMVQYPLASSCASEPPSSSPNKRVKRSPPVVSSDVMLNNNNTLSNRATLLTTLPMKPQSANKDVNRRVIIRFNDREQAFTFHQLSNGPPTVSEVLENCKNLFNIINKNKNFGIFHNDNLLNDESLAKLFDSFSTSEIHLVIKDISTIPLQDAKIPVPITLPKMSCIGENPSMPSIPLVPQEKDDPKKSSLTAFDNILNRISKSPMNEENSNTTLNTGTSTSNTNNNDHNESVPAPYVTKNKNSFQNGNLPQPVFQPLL
Method in brief: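 For each ungapped eight-base word taken together with its reverse complement, the Universal PBM Analysis Suite assigned an E-score. Binding data came from GST-tagged yeast transcription factors, applied at about 100-200 nM, on universal all-10-mer Agilent arrays made double-stranded by primer extension. Fluorescent anti-GST marked bound protein, and scans were normalised with masliner.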

Row | Sequence | PBM E-score
1 | GTTGCTTA | -0.0315
2 | AACTTTGC | -0.175
3 | CGAGTTTA | -0.0654
4 | AACATCCG | -0.0171
5 | AAAGTGCC | -0.213
6 | CATTGTTC | 0.0936
7 | GCTATTGA | -0.0724
8 | AATAGCCG | -0.118
9 | ACTTCATA | -0.0172
10 | ACAGTGCA | -0.00626
11 | CACGGATA | 0.232
12 | CACTAAGG | 0.0659
13 | ACACATAT | 0.22
14 | CTGAGGTA | 0.238
15 | CAATGACC | 0.105
16 | GCGTGATA | -0.00623
17 | AATTATAC | 0.0204
18 | AAAAGAGA | -0.16
19 | ACGGTAGA | -0.0655
20 | AGACAACG | 0.0513
21 | CGGATGAG | 0.215
22 | TCAGCTGA | 0.138
23 | ACTTTGCG | 0.0985
24 | ATGAGCAG | -0.0073
25 | ACCATCCG | 0.197

Row | Sequence | PBM E-score
26 | ATGCCGGG | -0.122
27 | CCTACACA | 0.142
28 | ACCCATCG | 0.25
29 | GGACCTCC | -0.122
30 | ATTCTCCC | 0.131
31 | CAGTCTGA | 0.17
32 | CGGTCGAA | -0.175
33 | GCATTAGC | -0.213
34 | ATTAAGAA | -0.148
35 | GGGTACCA | -0.0543
36 | ATCGCCTA | 0.0387
37 | ACAGAGTA | 0.00135
38 | GAGAAATA | -0.21
39 | AATAAGGC | -0.195
40 | ATCCAGAA | -0.00797
41 | CACTTCAC | -0.105
42 | AGCGCAAC | -0.145
43 | CGGATTGC | -0.128
44 | CTTTGAAC | -0.229
45 | AAGTCAAG | -0.156
46 | ATGTTCTG | 0.0818
47 | CCATTCCG | -0.14
48 | TCAAACAA | -0.0913
49 | GGTCTATA | -0.0175
50 | CTTGCCAC | 0.00934

Row | Sequence | PBM E-score
51 | GTTGGGCA | 0.0111
52 | AGTGCTTA | -0.14
53 | AGTGGGCC | -0.222
54 | GGTATTGA | -0.00982
55 | GCCTTTAC | -0.213
56 | AATACACT | 0.0206
57 | AAGTAGGT | -0.026
58 | GTGTAAAA | -0.242
59 | CTCCTATC | 0.0917
60 | ATGCGGGA | 0.0413
61 | ATTTTAAA | -0.169
62 | ACGTTTTA | -0.138
63 | GACTATAC | 0.322
64 | TACCTTAA | -0.224
65 | CAGTCAGA | 0.224
66 | CCGGGGGC | -0.057
67 | ACAGAGCT | -0.0507
68 | CCGTATAA | 0.129
69 | AAATCGTT | 0.0492
70 | CCCTGCCA | 0.0897
71 | CCAGGCAG | -0.0625
72 | ACAAATAG | 0.0245
73 | CACCCCAA | 0.127
74 | CCCGTTTA | -0.0994
75 | ACGGAAAT | -0.0417

Row | Sequence | PBM E-score
76 | GAACGCAA | -0.0402
77 | CTTGCGAA | 0.0595
78 | ACTGCGTC | -0.0401
79 | ATCGTCGG | 0.101
80 | ACTCGTTC | 0.0238
81 | TAGCACCA | 0.0215
82 | GCGAGTCA | 0.455
83 | CGCAACTC | 0.0218
84 | AGGTTAGG | 0.12
85 | AACAAAAA | 0.0406
86 | ACCCAGGT | 0.0206
87 | ACTCTTTA | -0.0168
88 | AATGCGTA | -0.0521
89 | GTGCGTGA | 0.16
90 | CTCGCGCC | 0.0702
91 | AGCGACTA | 0.211
92 | CAAGGCTA | -0.00405
93 | ACATCCTA | 0.0428
94 | CTTGCATC | -0.0129
95 | ATGCCGCC | -0.133
96 | CATGCAAC | 0.131
97 | AAAAGACC | -0.212
98 | CCAGCGAC | 0.105
99 | CTAATAAC | -0.0351
100 | AGTATAGG | -0.0334

Row | Sequence | PBM E-score
101 | ACCAATCC | 0.052
102 | AAACTGGT | 0.173
103 | CCTTGAAC | -0.121
104 | GACACTGA | 0.127
105 | GAGTGTAC | -0.00291
106 | GTAGCACA | 0.055
107 | CTCAAATA | -0.118
108 | GGTAAGAC | 0.0349
109 | ACAAGGCC | -0.128
110 | AGCTGGAT | 0.173
111 | CTTATACA | -0.0921
112 | CTGATTTA | 0.00054
113 | AACCGGAT | 0.0961
114 | ATGTTCCG | 0.0154
115 | GATCATCC | 0.141
116 | ACAATTAG | 0.0328
117 | CCCGCACC | 0.0419
118 | AGAGACAT | 0.095
119 | AGTGACGA | 0.139
120 | AGAGTTTA | -0.085
121 | CACGTCCG | -0.199
122 | GGGGTTAA | -0.141
123 | CGGACGGA | -0.134
124 | AAAAGGTG | -0.153
125 | ATACTAGG | 0.0984

Row | Sequence | PBM E-score
126 | AAGGGCCC | -0.103
127 | ATCACGCG | 0.176
128 | AGCGTACA | -0.0874
129 | ATCATGGG | 0.272
130 | CCCCCGAG | -0.0369
131 | AGGCCCGG | -0.234
132 | AGAAGTTA | -0.173
133 | CACAAGCA | 0.0443
134 | GGGCAACA | 0.0901
135 | GATGATAA | 0.0353
136 | ATTCAAGG | -0.0584
137 | AACTGAGA | -0.114
138 | CCCAATCG | -0.00353
139 | ACCAGCGT | 0.0656
140 | GGTGCGTA | 0.0599
141 | AAAATTTG | -0.225
142 | GGAGCACA | 0.0648
143 | AGCGCTCC | -0.126
144 | ATGGTGTA | 0.0975
145 | CCACAGCA | 0.088
146 | ACCGCAAT | 0.251
147 | CATCTTGC | 0.0744
148 | AACACGCG | 0.0101
149 | AGCGTAAA | -0.0553
150 | ATGCTAAA | -0.188

Row | Sequence | PBM E-score
151 | CAAAAATC | -0.209
152 | ATTTGCCA | -0.315
153 | AGATAACT | 0.0464
154 | GCGGATCA | 0.0861
155 | TCTCACCA | 0.0878
156 | CATATGCC | -0.0204
157 | AAAAGCGT | -0.108
158 | AAGCTATC | -0.0249
159 | ATGTACGA | 0.077
160 | CAGGAACG | -0.096
161 | GTAATTCA | -0.0794
162 | GCCATGAC | 0.0961
163 | CGACAGGC | 0.00361
164 | ACGGGTAG | -0.0806
165 | ACCTCCAG | -0.0853
166 | GTAACCGA | 0.118
167 | ATGAAGTG | -0.149
168 | CTGAGAGA | 0.0295
169 | ATCAGTGC | 0.124
170 | AGTTCTAA | -0.219
171 | ACCACGCA | 0.0308
172 | CATACGCC | 0.13
173 | GAGTTGGC | 0.161
174 | CCGGAAGA | -0.0401
175 | AGTAAGGC | -0.0517

Row | Sequence | PBM E-score
176 | AAACCATC | 0.273
177 | AACCGACG | 0.0236
178 | CCCCAATA | -0.152
179 | GTTCGATA | 0.123
180 | TAAGTCGA | -0.102
181 | ATCCGGGC | 0.0847
182 | AATCCCCG | -0.0461
183 | AGGCCCCC | -0.252
184 | CTGGATAA | -0.112
185 | ACTTATGA | 0.155
186 | GCTTTTTA | -0.135
187 | ACGTGAGA | -0.176
188 | AAAGGTCC | -0.195
189 | ACCTTGGA | -0.166
190 | AGAGAGTG | -0.0862
191 | CTAGTGTC | -0.0413
192 | AGGACGTG | -0.0296
193 | GTTCTCGA | -0.183
194 | AATTAATT | -0.19
195 | GAAGGTCC | -0.076
196 | GGTCAATA | 0.219
197 | ATGGTTCG | 0.224
198 | CGATGGGA | -0.0641
199 | CCAGGGAA | -0.0857
200 | GTGTCACA | 0.0736

Row | Sequence | PBM E-score
201 | TGGGTTAA | 0.135
202 | ACGTTACC | -0.0694
203 | ACACCTGG | 0.174
204 | CGTTGATA | 0.134
205 | GGGCCAAA | -0.151
206 | GTTCCAGA | -0.2
207 | ATTCAATC | 0.115
208 | GCAGCAGC | -0.0888
209 | ACGTACAG | -0.0884
210 | ACGACGCG | -0.0401
211 | CACTGTGG | 0.105
212 | GCACATCA | 0.17
213 | TAGACTAA | -0.099
214 | AGGAGATG | 0.131
215 | AGTAACAG | 0.0281
216 | GACGAATC | 0.0723
217 | AGATACCC | 0.0718
218 | CGCTCATA | 0.0591
219 | AAGCCCGG | -0.011
